This note sets out measurements from ChEMBL document CHEMBL5308541, “MAIP: An Open-Source Tool to Enrich High-Throughput Screening Output and Identify Novel, Druglike Molecules with Antimalarial Activity” (ACS Med Chem Lett, 2023).

Out of some 150,000 compounds screened, about 540 (0.36%) showed an effect of 50% or more. The list shows a part of the results.

This assay deals with Plasmodium falciparum. Description: Primary screen in NF54 nanoGlo assay, in single point, at 2uM, 72h; a lower Z score goes with more inhibition. It is filed as functional, Erythrocyte. The following applies: timepoint 72 hour.
`c1ccc(CCCN2CC3CCC(C2)N(C[C@H]2[C@@H]4CNC[C@@H]42)C3)cc1` (stereo not given in full): the % Inhibition (commonly the change of the read-out against control, counted positive when it falls) is listed as 1% and the Z score was -0.26.

In the case of `O=C(c1ccc(N2CCCNCC2)nc1)N1CCC(Cn2cccn2)CC1`, the “% Inhibition” value is on record as -4% and the Z score stood at 0.63.

`OCC1CCN(Cc2ccccc2)CC1Nc1ccc2nccnc2n1` (stereo not given): the “% Inhibition” value was 19% and the Z score is listed as -3.29.

Regarding `O=C(Nc1ccc(Br)c(F)c1)N1CCC(c2ncc3n2CCCC3)CC1`, the “% Inhibition” value is reported as -18% and the Z score stood at 3.94.

Turning to `COc1ccc(C2CC2CC(=O)N(C)c2cccc3ncccc23)cc1` (stereo not given), the “% Inhibition” value was -3% and the Z score is given as 0.41.

As to `CN(C)CCOc1ccccc1-c1cccc(C(=O)N2CC[C@H](CN)C2)c1`, the “% Inhibition” value is listed as -10% and the Z score amounted to 1.7.

Consider `O=C([C@H]1CCCNCC1)N1CCC(N2CCC(O)CC2)CC1`, for which the “% Inhibition” value was 1% and the Z score is -0.22.

As to `CC(C)Cc1cc(CNC(=O)c2cc(=O)c3ccccc3[nH]2)no1`, the “% Inhibition” value is reported as 0% and the Z score turned out to be 0.01.

In the case of `CCc1ccc(NC(=O)CCN2CC[C@H](NC(C)=O)C2)cc1`, the “% Inhibition” value was -7% and the Z score turned out to be 1.19.

As for `COc1cccc(Oc2ccc(NC(=O)[C@H]3CCCN(C4CCOCC4)C3)cn2)c1`, the “% Inhibition” value is given as -7% and the Z score turned out to be 1.18.
